Measurements taken from the RNAGym collection of RNA variant scans (doi:10.7554/elife.90254).
The source gives no read counts; variants with many changes may rest on few reads.

B1: LINE1-full (parent)
chain: UACGUAGGUGGUUUUCCCCUGAUAGUGCUAAGGGGGCCUGGAAGUUUGGACUGGGCAGAGCUCAACACAGCGUGGCAAAGUGGCUGUGGCUAGACUGCCUCUCUGGAUUCCUCGUCACUCAGCAGGGCAUCUCUGAGAGAAAUGCC

Variants of: B1
Experiment: self-cleavage, relative activity (ratio to wild type); higher = more cleavage; in vitro, sequencing; the parent is a self-cleaving ribozyme

| Variant | self-cleavage |
| --- | --- |
| C110U U115C U134A | 0.93 |
| A2G U81G U119C A142G | 2.04 |
| U15C C19U U23C U73C A78U A117U A129G | 2.89 |
| U45C A67G G126A A136G | 0.53 |
| A22G A94U A129G | 0.47 |
| G32A A77G A79G | 0.71 |
| G83A U87A U96C U100C | 0.1 |
| U12A U29C A79G U115A | 0.97 |
| A50U U81A U87A | 0.06 |
| A30G A42G A43G U85A | 0 |
| G32A A59G U85C U104C A140G | 0 |
| U13C G55C U73C | 0 |
| U1C A2C A57C G74A A77G G105A | 0.07 |
| A50G A79U A129G U132C A142G | 2.63 |
| U85C U96C A129G | 0 |
| U12G A57U A140G A141G | 0.31 |
| A69G U119A A138U A141G | 0.98 |
| U15C A69G G70U U115C | 0.12 |
| U52C U73C U96A U109C C146A | 0.77 |
| G34A U39A U115C A129U | 1.48 |
| U73A U87A U132C | 0.05 |
| U20C U26A A50G U109A A129G | 1.04 |
| U12C G88A U109C | 0.05 |
| A67G U102C A140G | 1.75 |

| Variant | self-cleavage |
| --- | --- |
| U12C U96A U102C A107G A142G | 0.15 |
| U39C A57G U112A | 1 |
| A59U G60A U102C U104C A117G | 0.11 |
| U23C U39C U102A | 0.35 |
| U23C U96C U104A U134A A138G | 0.08 |
| C38U U96A A138G | 0.03 |
| U12G U14C U26C U143A | 1.35 |
| G35A U52C U96A U134A | 0.05 |
| U52C A65C C113A | 0 |
| U9C A78G U85A U143C | 0.15 |
| U73A U87C A142G | 0.06 |
| G54A U104A G126A U134C | 0.36 |
| U20A C37U A67U | 0.11 |
| U12C U26G G70A U132C | 0.16 |
| U47C U100A U112A | 0.95 |
| U14A U15C A117G | 1.56 |
| U5C U15A A124G G137A | 1.87 |
| U14C G114A U143A | 1.3 |
| A42U A69U A92U U115C | 0.02 |
| U9A A59U G86U U115C | 0.15 |
| C37U U52C U91A | 0.59 |
| U15C A31G U85A | 0.11 |
| A22G C28U U73A U108A U119C | 0.6 |
| U5C U102C U134A | 1.23 |

| Variant | self-cleavage |
| --- | --- |
| U9C C66U U119A A129C | 0.06 |
| U1C U14C U23C U96C | 0.22 |
| U39C A77G A140G A142G | 2.43 |
| U14C U47C U130C | 2.51 |
| U9A G83A A136U A138G | 2.04 |
| A78G A94G U119C U143G | 0 |
| A43G U47A U100C | 1.45 |
| G54A A67U U81C | 0.05 |
| U14C A64U U143A | 0.15 |
| A6U U14C U62C U91C | 0 |
| U20G A50U U100G | 0.65 |
| A6G A94G U119A | 0.39 |
| U12C U134A A138G | 1.55 |
| C3U U100A U130C | 0.38 |
| U14C U115C A129G | 0 |
| A78G U96A A124C | 0.07 |
| G83C U109C U115C A142G | 0.22 |
| U14C U39C A64G A78G | 0 |
| U5C C51A U115C | 1.62 |
| U15C G72A U130C | 0.98 |
| U5C G53U G86U | 0.19 |
| G10A U15C A42G | 2 |
| A31G U73A C95A A140U | 0.03 |
| A69G U96C A140U | 0.2 |

| Variant | self-cleavage |
| --- | --- |
| A31G A57U U62C G88A | 0.01 |
| A2G A22U U47C A136U G137A | 0.66 |
| C38U A94G A136U | 0.23 |
| G11A U15A C28A A138G | 0.83 |
| A2U U20C A22U U85C | 0.35 |
| U5C U9C U81A | 1.55 |
| A22G U96A A129U | 0.53 |
| U39C A42G A64U A138G | 0.55 |
| U52A A107G A141G | 1.44 |
| U1C U14C A22G G25U U96C U112A | 0.47 |
| U9A A42G A124U A142G | 0.75 |
| U26A A59U U119C U143C | 0.46 |
| A59G U81A U115C | 0.15 |
| U39C A117U A121G | 2.3 |
| U9C U13A A57G | 0 |
| U39G A92U U96C U130C A138G A140U | 0 |
| U14A C19U U47C | 0 |
| A94C U130C A136G | 0 |
| C19G U47C U52C C113U | 1.06 |
| U13C U26C G58U | 0.1 |
| U14C A42G A43U U102C A107G | 0.92 |
| U39A A43G A92G | 0.04 |
| U15C A22G U47A A107G | 0.72 |
| A65C U96C A107G A142G | 0 |

| Variant | self-cleavage |
| --- | --- |
| U12C U23A A57G A67G A129G | 0 |
| A69G U91C A140U | 0 |
| A22G U96C U134C | 0.13 |
| U1G G36C U100C | 0.66 |
| U15A U45C G75A | 0.49 |
| A24G U26A A117G | 2.8 |
| A64G A69U A129G U134A A136U | 0.11 |
| U20C G35A U45C U87C | 0.19 |
| G34A C90U U96C | 0.07 |
| A6G U13C U46A A136G | 1.28 |
| U15A C71A U85A | 0.03 |
| G11A U39C A69G U85C G122U | 2.3 |
| U12C U20C G33A U91A | 1.09 |
| A43G U46A U112C | 0.53 |
| G8U U20A U96A U104C U119A | 0.54 |
| U15C A24U U39C U73G | 1.84 |
| U15A U23C A42G A67G U143A | 0.38 |
| U39A U46C U102C A121G A129U | 0.51 |
| A2G U87C A124G | 0.92 |
| U26C U91C A140G | 0.92 |
| A2G G4U A69G | 1.36 |
| U15C A31G U39C | 1.2 |
| U14C A42G U96C A136G | 0.51 |
| G8A A59G U130C | 0.18 |

| Variant | self-cleavage |
| --- | --- |
| U13C U96A U134C A142G | 0 |
| G40A A50G U130C | 0.54 |
| U46C C61A U108C | 0.05 |
| C38A A64U A94U A121G | 0.16 |
| A42U A50U U62A G105A | 0.02 |
| U23A G34A A79U A141G | 1.65 |
| G54A A107U A129G A140G | 0.82 |
| U12C U26C A59G A136G | 0.66 |
| G60A U115C G139C | 0.02 |
| G86A U87A U134C | 0.11 |
| U12C A64G U85A | 0.27 |
| U12C U29A U52A U100C | 0.56 |
| U9A U45A U47C A78G U87A | 0.11 |
| U1C A65G U100C U119C | 0 |
| U15C C51U U96A U112C A136G | 0.08 |
| U12C A24U A31U U62C | 0 |
| C3G A6G U52A U134G A136G | 1.97 |
| U47A U108C A124G | 2.54 |
| U29C A92U A121G | 1.15 |
| U23C A69G G127A | 0.42 |
| U9C U13C U115C A124G | 0.84 |
| A57U A78G U112A A138G | 0.02 |
| G35U G83U U130A | 0.72 |
| U9A U47A U134C A136G | 0.86 |

| Variant | self-cleavage |
| --- | --- |
| A79G U85A U108C U130C | 0 |
| U13C U23C A50G G74U U81C A117G | 0 |
| U45C U73G U109C | 0 |
| G44A C71U G127U | 1.03 |
| U5C A22G A129U | 1.53 |
| U26C U112C U143C | 2.41 |
| U14C U87G A92G | 0.21 |
| U9C U96A A140G | 0.06 |
| G34A U47A A69G A138U | 0.13 |
| U46C A107G U108C | 0 |
| A2U U45C A79U A121G U143C | 0 |
| U26C U29C A140U | 0 |
| U26C G83U C131U G137A | 1.02 |
| C37G A69U U73A U91A U112C | 0.02 |
| A67G U130A A136G | 0.72 |
| G35C U52C A77U A124G A138G | 0.19 |
| G7C A30G G86A A124G G126A U134C | 0.03 |
| A67G U100C A121U A138G | 1.31 |
| G72U U81A U112G | 1.8 |
| U104C A121G U130A | 2.41 |
| A77G A136U A141G | 2.8 |
| U12C U100A U112A | 0.46 |
| U45G A65G U102C | 0.2 |
